Inhibition data for 68 compounds are collected here from PubChem BioAssay AID1434 (Sanford-Burnham Center for Chemical Genomics, 2008).

The other results are listed elsewhere or left out. These are further read-outs of the screen, such as a control signal, another cell line or another target. No call is given for them. The list favours compounds with an active or inconclusive main result.

The target of the test is Runt-related transcription factor 1 (Homo sapiens) + Core-binding factor subunit beta (Homo sapiens) (UniProt Q01196+Q13951). Put plainly: inhibitors of RUNX1 Runt–CBFb-SMMHC binding, primary screen, biochemical, FRET, Cerulean-Runt, Venus-CBFb-SMMHC, uHTS (AID 1434).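 Also: 0% = DMSO wells and 100% = wells with excess untagged CBFb-SMMHC; inhibitors lower the FRET ratio by blocking Runt binding to CBFb-SMMHC.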 The following applies: Cerulean-Runt/Venus-CBFb-SMMHC FRET ratio 530/480, 1 h; retest duplicate average; at 20 µM; stronger effect = higher value.
Sequence of UniProt Q01196 (Q01196 whole entry, looked up): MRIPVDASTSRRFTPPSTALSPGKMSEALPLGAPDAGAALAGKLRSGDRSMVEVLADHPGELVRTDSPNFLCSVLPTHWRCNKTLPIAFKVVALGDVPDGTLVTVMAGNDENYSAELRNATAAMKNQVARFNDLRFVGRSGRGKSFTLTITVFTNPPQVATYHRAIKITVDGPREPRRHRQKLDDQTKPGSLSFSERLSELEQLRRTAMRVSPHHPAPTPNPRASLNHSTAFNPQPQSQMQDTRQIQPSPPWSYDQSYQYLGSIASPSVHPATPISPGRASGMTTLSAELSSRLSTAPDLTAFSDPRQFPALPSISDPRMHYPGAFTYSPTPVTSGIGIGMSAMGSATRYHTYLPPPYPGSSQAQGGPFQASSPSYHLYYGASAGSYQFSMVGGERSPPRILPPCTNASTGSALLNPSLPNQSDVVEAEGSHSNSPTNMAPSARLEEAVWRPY
Sequence of UniProt Q01196 (Q13951 whole entry, looked up): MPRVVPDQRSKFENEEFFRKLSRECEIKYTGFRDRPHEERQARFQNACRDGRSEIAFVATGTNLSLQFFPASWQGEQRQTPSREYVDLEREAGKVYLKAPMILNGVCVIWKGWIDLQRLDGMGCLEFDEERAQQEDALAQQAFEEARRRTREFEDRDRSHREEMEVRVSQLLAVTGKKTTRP
Usually inhibition stands for the drop in the measured response relative to a control, in per cent. As for `CC(=O)c1ccc(-c2cccs2)s1`, the inhibition was 173%.
To `COc1ccc2cc(C(=O)NCc3ccco3)c(=O)oc2c1` belongs 84.2%; to `C=CCNC(=O)/C(C#N)=C/c1c(N2CC(C)OC(C)C2)nc2ccccn2c1=O` (stereo not drawn), 71.5%; to `CCNC(=O)c1cc2c(=O)n3cccc(C)c3nc2n(CCc2ccccc2)c1=N`, 71.5%.
To `Cn1c(=O)nc2n(Cc3ccccc3)c3ccccc3cc-2c1=O` belongs 71.5%; to `CCOc1ccc2nc(NCCCNS(=O)(=O)c3ccc(C)cc3)c(C#N)cc2c1`, 63.1%.
To `COCCCn1c(=N)c(C(=O)NC2CCCCC2)cc2c(=O)n3ccccc3nc21` belongs 71.5%.
In the case of `C=CCn1c(NC(=O)c2ccccc2Cl)c(C#N)c2nc3ccccc3nc21`, the inhibition came out at 72.7%.
As for `Cc1cc(O)ccc1Nc1nc2ccccc2nc1Nc1ccc(O)cc1C`, the inhibition was 59.4%.
Take `CCCCNC(=O)C(C#N)c1nc2ccccc2nc1N1CCCC1` (stereo not drawn): the inhibition came to 85.4%.
For `N#Cc1c(-c2cccnc2)c2c([nH]c1=O)-c1ccccc1OC2`, the inhibition was determined as 70.6%.
Take `CCOC(=O)c1cc(C)[nH]c(=O)c1C#N`: the inhibition was determined as 58.6%.
For the compound `CCCCc1cc(=O)oc2c(CN(C)C)c(O)ccc12`, the inhibition amounted to 115%.
For the compound `COc1ccc(C2CC(c3cccs3)=NN2c2ccc(C=O)cc2)cc1` (stereo not drawn), the inhibition turned out to be 71.5%.
With `CCOC(=O)c1c(NC(=S)Nc2ccc(OCC)cc2)sc2c1CCN(C)C2`, the inhibition came out at 147%.
On to `Cc1cc(C)cc(-n2c3nc4ccccc4nc3c3c(=O)n(Cc4ccco4)cnc32)c1`, for which the inhibition worked out at 47.1%.
In the case of `COCCCNC(=O)c1c(N)n(-c2cccc(S(N)(=O)=O)c2)c2nc3ccccc3nc12`, the inhibition was 71.5%.
With `O=C(Nc1ccc(-c2nc3ccccc3s2)c(O)c1)C1=COCCO1`, the inhibition stood at 73.2%.
In the case of `Nc1ccc(-c2nc3ccc(C(=O)O)cc3s2)cc1`, the inhibition is 85.6%.
`COc1ccc(C2C3=C(CC(C)(C)CC3=O)Nc3c2c(=O)[nH]c(=O)n3Cc2ccccc2)cc1OC` (stereo not drawn): the inhibition is 72.6%.
With `O=S(=O)(Nc1ccc(-c2nc3cccnc3s2)cc1)c1cc(F)ccc1F` the figure was 93.5%.
With `Cc1cccc(C(=O)N=c2c(C#N)cc3c(=O)n4cccc(C)c4nc3n2Cc2ccco2)c1` the figure was 72.9%; with `O=C(Cc1cc(=O)oc2cc(O)ccc12)NCC1CCC(C(=O)O)CC1` (stereo not drawn), 120%; with `CCOC(=O)c1c(/N=C/N(C)C)sc(/C=N/Nc2ccccc2)c1-c1ccc(Cl)cc1`, 159%.
As to `Cc1ccc(S(=O)(=O)c2cc3c(=O)n4ccccc4nc3n(C)c2=N)cc1`, the inhibition was found to be 71.5%.
To `O=c1oc2c3c4c(cc2c2c1CCC2)OCCN4CCC3` belongs 141%; to `CN1/C(=C/C(=O)c2cccs2)Sc2ccccc21`, 106%.
To `C=CCNc1nc(N2CCOCC2)c(C#N)c2c1CN(C)CC2` belongs 50.6%; to `COc1ccc(CNC(=O)c2c(N)n(CCCN3CCOCC3)c3nc4ccccc4nc23)cc1`, 116%; to `CCOC(=O)c1cc2c(=O)n3ccccc3nc2n(Cc2ccco2)c1=NC(=O)c1ccccc1OCC`, 70.6%.
With `Cc1cccn2c(=O)c(/C=C(\C#N)C(=O)NCc3ccco3)c(N3CCCC(C)C3)nc12` (stereo not drawn), the inhibition was 173%.
To `CCN(CC)c1ccc2cc(-c3nc4ccccc4n3C)c(=O)oc2c1` belongs 72.9%; to `N#Cc1cc2cc3c(cc2nc1N1CCOCC1)OCO3`, 164%.
`CCOC(=O)c1sc(Nc2nc3c(OC)cccc3s2)cc1C`: the inhibition came out at 111%.
With `Oc1ccc(-c2csc(-c3ccccc3)n2)cc1O` the figure was 59.1%; with `CN1Cc2sc(N)c(C#N)c2CC1(C)C`, 74%.
To `CCN(CC)c1nc2ccccc2nc1C(C#N)C(=O)NCCCOC` (stereo not drawn) belongs 74.9%; to `CCOC(=O)c1cc2c(=O)n3ccccc3nc2n(CCCOC)c1=NC(=O)c1ccncc1`, 70.6%; to `CCCCCNc1nc(NCCCO)c(C#N)c2c1CN(C)CC2`, 72.9%.
To `CC(=O)Nc1ccc2c3c(cccc13)C(=O)N(c1ccccc1)C2=O` belongs 70.6%.
In the case of `c1ccc2c(NCCCN3CCOCC3)c3ccccc3nc2c1`, the inhibition was found to be 134%.
As for `CCN(CC)c1ccc(/C=N/NC(=O)c2cccc(S(=O)(=O)N3CCOCC3)c2)c(O)c1`, the inhibition amounted to 70.6%.
`O=C(NCc1ccco1)c1cnn2c(C(F)(F)F)cc(-c3cccs3)nc12`: the inhibition was determined as 56.4%.
`Cc1ccc(N2C(=O)C(Cl)=C(N3CCOCC3)C2=O)cc1Cl`: the inhibition was 50.5%.
With `Cc1ccc(C)c(-n2c3nc(=O)n(C)c(=O)c-3cc3ccccc32)c1` the figure was 70.6%; with `Cc1ccc2nc(N3CCN(C=O)CC3)nc(-c3ccccc3)c2c1`, 71.5%.
Turning to `N#Cc1c(-c2ccccc2)c(C#N)c2nc3ccccc3n2c1N`, the inhibition was 112%.
With `COc1ccc2o/c(=N\O)c(C(=O)Nc3ccccc3OC)cc2c1` the figure was 80.8%.
With `COc1ccc(S(=O)(=O)N(C(C)=O)c2ccc3oc(=O)sc3c2)cc1`, the inhibition was 52.2%.
With `Cc1oc(/N=C/c2ccc(O)cc2O)c(C#N)c1C`, the inhibition was found to be 131%.
With `CCn1nc(NC(=O)c2ccccn2)c2cc3cc(C)ccc3nc21` the figure was 85.1%; with `Cc1cc(C(=O)O)ccc1-c1ccc(/C=C2\NC(=O)N(Cc3ccccc3Cl)C2=O)o1`, 75%; with `CN1CCc2c(sc3c2C(=O)NC(c2ccc4c(c2)OCO4)N3)C1` (stereo not drawn), 171%.
Take `COc1cc(C2C3=C(CC(C)(C)CC3=O)Nc3c2c(=O)[nH]c(=O)n3Cc2ccccc2)ccc1O` (stereo not drawn): the inhibition came to 134%.
With `Cc1ccccc1N=Cc1cc2c(cc1O)OC(N)=C(C#N)C2c1ccccc1` (stereo not drawn) the figure was 107%.
In the case of `Oc1ccc2ccccc2c1/C=N/n1cnnc1`, the inhibition is 117%.
To `COc1ccccc1-n1c(SCc2cc(=O)oc3cc(O)ccc23)nc2ccccc2c1=O` belongs 52.7%; to `CCCc1cc(NCC2CCCO2)n2c(nc3ccccc32)c1C#N` (stereo not drawn), 72.7%.
With `CCCCN1C=C(C(=O)OC)C(c2ccccc2C(F)(F)F)C(C(=O)OC)=C1` the figure was 137%; with `C=CCNC(=O)/C(C#N)=C/c1c(N(Cc2ccccc2)Cc2ccccc2)nc2ccccn2c1=O`, 73.4%; with `CCCn1nc(NC(=O)c2cccs2)c2cc3ccccc3nc21`, 52.1%.
As for `O=c1cc(CSc2nc3ccccc3c(=O)[nH]2)c2ccc(O)cc2o1`, the inhibition worked out at 55.3%.
To `CCN(CC)c1ccc(C(=O)OCc2cc(=O)oc3cc(O)ccc23)cc1` belongs 91.6%.
Regarding `CC(=O)N=c1c(C#N)cc2c(=O)n3cccc(C)c3nc2n1CCCOC(C)C`, the inhibition is 70.6%.
With `CCCCCCc1cc2cc(S(=O)(=O)c3ccc(F)c(Cl)c3)c(=O)oc2cc1O` the figure was 71.5%.
With `Nc1cccc2c1C(=O)N(C(=O)/C=C/c1ccc(F)cc1)C2=O`, the inhibition worked out at 70.6%.
To `CC(OC(=O)c1cc2c(ccc3ccccc32)oc1=O)c1nc2ccccc2s1` (stereo not drawn) belongs 84.7%.
To `CC(C)N1CCc2c(sc(NC(=S)NC(=O)c3ccccc3)c2C#N)C1` belongs 71.5%.
